Laboratory results from the supplement of paper PMC10126150.
Values marked as one replicate rest on one cluster of the flow cell; about a third of the high ones do not repeat.

Tested on: ATP
Assay: switch fluorescence ratio, 500 uM ATP over buffer (Cy3 cluster intensity, sum of 5 cycles each) (fold (ratio)); higher = stronger signal-on switching upon ATP binding; sequences stand for … in TCGTCGGCAGCGTCAGATGTGTATAAGAGACAGTTTTTTTTTTTTTTTTTTTTTTTTT…TC
Details: aptamer strand: ATP DNA aptamer (quencher-CACCTGGGGGAGTATTGCGGAGGAAGG + anchor), 100 nM annealed; ATP concentration: 500 uM; one replicate
How it was run: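 Imaging in selection buffer was followed by imaging after 15 min with 500 uM ATP at 22 °C, for Cy3-labelled switching-strand clusters annealed to 100 nM quencher-labelled ATP aptamer on a modified Illumina MiSeq flow-cell. Five of these buffer/ATP cycles ran, separated by NaOH stripping and re-annealing. The fluorescence ratio per cluster is summed target-cycle over summed buffer-cycle Cy3 intensity, averaged per switch-domain sequence; clusters outside 100-1000 RFU were removed.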
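Also: ATP exposure 15 min at 22 °C before imaging.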

**Q.** With ATTATGAAGA as the sequence, how does the switch fluorescence ratio read?
**A.** 1

**Q.** For ATTATGTGCC, which switch fluorescence ratio is on record?
**A.** 1

**Q.** With ATTATTACCA as the sequence, how does the switch fluorescence ratio read?
**A.** 1.02

**Q.** For ATTATTTTA, which switch fluorescence ratio is on record?
**A.** 0.998

**Q.** For ATTATTTTCA, which switch fluorescence ratio is on record?
**A.** 1.04

**Q.** With ATTATTTTCC as the sequence, how does the switch fluorescence ratio read?
**A.** 1.05

**Q.** Which switch fluorescence ratio does the source give for ATTCACCCAT here?
**A.** 1.1

**Q.** How did the switch fluorescence ratio turn out when ATTCATACCG was run?
**A.** 0.982

**Q.** For ATTCATACTT, which switch fluorescence ratio is on record?
**A.** 0.975

**Q.** ATTCATCGCC was tested. Which switch fluorescence ratio did it give?
**A.** 1.02

**Q.** How did the switch fluorescence ratio turn out when ATTCATGTAA was run?
**A.** 0.987

**Q.** Which switch fluorescence ratio does the source give for ATTCCAAGCT here?
**A.** 1.09

**Q.** ATTCCAGTTG was tested. Which switch fluorescence ratio did it give?
**A.** 1.01

**Q.** With ATTCCCAAGG as the sequence, how does the switch fluorescence ratio read?
**A.** 1.46

**Q.** ATTCCTCCGG was tested. Which switch fluorescence ratio did it give?
**A.** 5.48

**Q.** For ATTCCTGGG, which switch fluorescence ratio is on record?
**A.** 0.998

**Q.** Which switch fluorescence ratio does the source give for ATTCCTTAGA here?
**A.** 1.01

**Q.** With ATTCGAATAG as the sequence, how does the switch fluorescence ratio read?
**A.** 0.971

**Q.** Which switch fluorescence ratio does the source give for ATTCGAATCC here?
**A.** 1.3

**Q.** How did the switch fluorescence ratio turn out when ATTCGCGGGA was run?
**A.** 1.02

**Q.** ATTCGCTCGT was tested. Which switch fluorescence ratio did it give?
**A.** 0.973

**Q.** Which switch fluorescence ratio does the source give for ATTCGGCACG here?
**A.** 1.02

**Q.** How did the switch fluorescence ratio turn out when ATTCGGGCCC was run?
**A.** 1.01

**Q.** Which switch fluorescence ratio does the source give for ATTCGGTGTT here?
**A.** 1.02

**Q.** How did the switch fluorescence ratio turn out when ATTCTAACAA was run?
**A.** 0.999

**Q.** Which switch fluorescence ratio does the source give for ATTCTAATAG here?
**A.** 0.981

**Q.** Which switch fluorescence ratio does the source give for ATTCTATCAT here?
**A.** 0.98

**Q.** ATTCTATCTC was tested. Which switch fluorescence ratio did it give?
**A.** 0.983

**Q.** ATTCTGCACT was tested. Which switch fluorescence ratio did it give?
**A.** 1.05

**Q.** With ATTCTTACCT as the sequence, how does the switch fluorescence ratio read?
**A.** 1.19

**Q.** How did the switch fluorescence ratio turn out when ATTCTTACGG was run?
**A.** 0.962

**Q.** For ATTCTTATTC, which switch fluorescence ratio is on record?
**A.** 0.994

**Q.** Which switch fluorescence ratio does the source give for ATTCTTTTGA here?
**A.** 0.973

**Q.** With ATTGACAGAC as the sequence, how does the switch fluorescence ratio read?
**A.** 1.16

**Q.** Which switch fluorescence ratio does the source give for ATTGACCAGA here?
**A.** 1.08

**Q.** For ATTGACCAGT, which switch fluorescence ratio is on record?
**A.** 1.06

**Q.** ATTGACCTAC was tested. Which switch fluorescence ratio did it give?
**A.** 1.43

**Q.** How did the switch fluorescence ratio turn out when ATTGACGTCC was run?
**A.** 0.98

**Q.** How did the switch fluorescence ratio turn out when ATTGACTAGG was run?
**A.** 0.934

**Q.** With ATTGAGATA as the sequence, how does the switch fluorescence ratio read?
**A.** 0.968

**Q.** How did the switch fluorescence ratio turn out when ATTGAGCTTT was run?
**A.** 0.964

**Q.** Which switch fluorescence ratio does the source give for ATTGAGGCAT here?
**A.** 1.03

**Q.** How did the switch fluorescence ratio turn out when ATTGAGTGCG was run?
**A.** 1.03

**Q.** ATTGATGATG was tested. Which switch fluorescence ratio did it give?
**A.** 0.981

**Q.** With ATTGCAGATT as the sequence, how does the switch fluorescence ratio read?
**A.** 0.953

**Q.** For ATTGCCTATG, which switch fluorescence ratio is on record?
**A.** 1.02

**Q.** ATTGCGCGG was tested. Which switch fluorescence ratio did it give?
**A.** 1.01

**Q.** For ATTGCTGGTC, which switch fluorescence ratio is on record?
**A.** 0.955

**Q.** Which switch fluorescence ratio does the source give for ATTGCTTGCT here?
**A.** 0.992

**Q.** How did the switch fluorescence ratio turn out when ATTGGAATAT was run?
**A.** 1.01

**Q.** How did the switch fluorescence ratio turn out when ATTGGATAGT was run?
**A.** 0.999

**Q.** For ATTGGATGAG, which switch fluorescence ratio is on record?
**A.** 0.996

**Q.** ATTGGCAAGT was tested. Which switch fluorescence ratio did it give?
**A.** 1.02

**Q.** With ATTGGCGAAG as the sequence, how does the switch fluorescence ratio read?
**A.** 0.995

**Q.** ATTGGCGGGC was tested. Which switch fluorescence ratio did it give?
**A.** 1.01

**Q.** How did the switch fluorescence ratio turn out when ATTGGGACTA was run?
**A.** 1.03

**Q.** For ATTGGGCAAC, which switch fluorescence ratio is on record?
**A.** 1.07

**Q.** With ATTGGGCTGG as the sequence, how does the switch fluorescence ratio read?
**A.** 0.985

**Q.** For ATTGGGGT, which switch fluorescence ratio is on record?
**A.** 1.01

**Q.** ATTGGGTGG was tested. Which switch fluorescence ratio did it give?
**A.** 1.01

**Q.** With ATTGGTCGGA as the sequence, how does the switch fluorescence ratio read?
**A.** 0.971

**Q.** Which switch fluorescence ratio does the source give for ATTGGTGGCG here?
**A.** 1.07

**Q.** ATTGGTTATC was tested. Which switch fluorescence ratio did it give?
**A.** 0.999

**Q.** ATTGTATGAG was tested. Which switch fluorescence ratio did it give?
**A.** 0.997

**Q.** For ATTGTATGGC, which switch fluorescence ratio is on record?
**A.** 1.01

**Q.** For ATTGTCAATA, which switch fluorescence ratio is on record?
**A.** 0.996

**Q.** With ATTGTGAGTG as the sequence, how does the switch fluorescence ratio read?
**A.** 1.02

**Q.** For ATTGTGATGC, which switch fluorescence ratio is on record?
**A.** 1.02

**Q.** Which switch fluorescence ratio does the source give for ATTGTTACCG here?
**A.** 0.983

**Q.** Which switch fluorescence ratio does the source give for ATTGTTCTTC here?
**A.** 0.951

**Q.** ATTGTTTCCG was tested. Which switch fluorescence ratio did it give?
**A.** 1.05

**Q.** With ATTTAATAAA as the sequence, how does the switch fluorescence ratio read?
**A.** 1.02

**Q.** How did the switch fluorescence ratio turn out when ATTTACACTG was run?
**A.** 0.962

**Q.** How did the switch fluorescence ratio turn out when ATTTACATCT was run?
**A.** 1.07

**Q.** For ATTTACCCTA, which switch fluorescence ratio is on record?
**A.** 1.05

**Q.** For ATTTAGGTAC, which switch fluorescence ratio is on record?
**A.** 1.03

**Q.** How did the switch fluorescence ratio turn out when ATTTAGGTCT was run?
**A.** 0.968

**Q.** For ATTTAGTCAT, which switch fluorescence ratio is on record?
**A.** 0.988

**Q.** How did the switch fluorescence ratio turn out when ATTTATGCT was run?
**A.** 0.948

**Q.** ATTTATGGGA was tested. Which switch fluorescence ratio did it give?
**A.** 0.96

**Q.** Which switch fluorescence ratio does the source give for ATTTCAATCA here?
**A.** 0.971

**Q.** For ATTTCAGGAC, which switch fluorescence ratio is on record?
**A.** 1.02

**Q.** ATTTCAGTGG was tested. Which switch fluorescence ratio did it give?
**A.** 0.973

**Q.** For ATTTCGGTT, which switch fluorescence ratio is on record?
**A.** 0.988

**Q.** For ATTTCGTTGG, which switch fluorescence ratio is on record?
**A.** 0.958

**Q.** With ATTTCTACCT as the sequence, how does the switch fluorescence ratio read?
**A.** 1.2

**Q.** How did the switch fluorescence ratio turn out when ATTTCTGAGC was run?
**A.** 1.03

**Q.** Which switch fluorescence ratio does the source give for ATTTGCAC here?
**A.** 1.02

**Q.** ATTTGCCTG was tested. Which switch fluorescence ratio did it give?
**A.** 1.07

**Q.** For ATTTGCGCTT, which switch fluorescence ratio is on record?
**A.** 1.01

**Q.** ATTTGGCGCA was tested. Which switch fluorescence ratio did it give?
**A.** 1.05

**Q.** Which switch fluorescence ratio does the source give for ATTTGGGACC here?
**A.** 1.05

**Q.** Which switch fluorescence ratio does the source give for ATTTGTAACA here?
**A.** 0.977

**Q.** How did the switch fluorescence ratio turn out when ATTTGTTC was run?
**A.** 1.08

**Q.** ATTTGTTCAC was tested. Which switch fluorescence ratio did it give?
**A.** 1.02

**Q.** ATTTTAACTC was tested. Which switch fluorescence ratio did it give?
**A.** 0.958

**Q.** With ATTTTAATT as the sequence, how does the switch fluorescence ratio read?
**A.** 1.01

**Q.** For ATTTTAGTAG, which switch fluorescence ratio is on record?
**A.** 1

**Q.** With ATTTTCCACG as the sequence, how does the switch fluorescence ratio read?
**A.** 1.46

**Q.** For ATTTTCCGGG, which switch fluorescence ratio is on record?
**A.** 1.05

**Q.** How did the switch fluorescence ratio turn out when ATTTTCTCTA was run?
**A.** 0.987
